# In PubChem BioAssay AID686978 (National Center for Advancing Translational Sciences (NCATS), 2013):
# The campaign covered roughly 420,000 compounds. About 64,000 (15%) were called active. Inconclusive results, whose numbers are uncertain, are shown with a selection of clear calls. Calls come from the whole dose curve; as a rule, active = well fitted inhibition curve with a large enough effect; inconclusive = small, poorly fitted or top-dose-only effect; inactive = flat fitted curve, though single readings scatter. Potencies of inconclusive entries are left out as doubtful fits.
# Experiment: qHTS for Inhibitors of human tyrosyl-DNA phosphodiesterase 1 (TDP1): qHTS in cells in absence of CPT; note: nearly all actives have a fitted effect of over 55% in size
# Details: DT40 Tdp1-/- hTDP1 cells, no CPT, ATP luminescence, 48 h; activity change, negative = growth inhibition: at 46.2 µM (top of the series) unless noted
# Method in brief: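 Chicken DT40 Tdp1-/- cells stably complemented with human TDP1 were seeded at 400 cells/well with DMSO in place of 20 nM camptothecin. After compound pinning, cells grew at least 48 hr at 37 °C; viability read by CellTiter-Glo luminescence.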
# % is set by controls: 0 for no effect and ±100 for the full control effect; potency is the fitted concentration of half-maximal effect; tags give direction and shape of the fitted curve.
SMILES,Potency,"activity change, negative = growth inhibition"
C/C(=N\NC(=S)NC1CCCCC1)c1cccc(Br)c1,active: 16.4 µM,–
O=C(C1=C[C@H](c2csc3ccccc23)C[C@H](OCCCCO)O1)N1CCN(Cc2ccccc2)CC1,"inconclusive [inhibitor, single point]",–
CC(C)c1ccc(NC(=O)N2CCN(c3ccc(Cl)c(Cl)c3)CC2)cc1,active: 0.92 µM,–
CC(=O)CCc1oc2ccc([N+](=O)[O-])cc2c1-c1ccc(C)o1,–,inactive: -11.8%
CCN(Cc1ccccc1)c1cc2c(c3c1ccn3C)C1CCC2C1 (stereo unspecified),active: 23.1 µM,–
CC(C)(C)c1ccc(C(O)c2ncc(-c3ccccc3Cl)[nH]2)cc1 (stereo unspecified),"inconclusive [inhibitor, single point]",–
COc1cc(C(=O)OCC(=O)Nc2c(F)c(F)c(F)c(F)c2F)cc(OC)c1OC,–,inactive: -20.7%
COc1ccc(OC)c(NC(=O)CN(c2ccc(C)cc2)S(=O)(=O)c2c(C)n[nH]c2C)c1,"inconclusive [inhibitor, single point]",–
NC[C@H](Cc1ccccc1)NCCc1cc(C(F)(F)F)cc(C(F)(F)F)c1,"inconclusive [inhibitor, single point]",–
Cc1cc(/C=N/NC(N)=S)c(C)n1-c1ccc(Cl)cc1,active: 18.4 µM,–
Cc1ccc(C(=O)CC(=O)c2ccccc2)cc1,"inconclusive [inhibitor, single point]",–
CC(Oc1ccc(-c2ccccc2)c(F)c1)c1ccn(S(=O)(=O)c2ccc(Cl)cc2)n1 (stereo unspecified),"inconclusive [inhibitor, single point]",–
Cc1nc2c(-c3ccccc3)c(C)nn2c(C)c1CCC(=O)NCCc1ccccc1,"inconclusive [inhibitor, single point]",–
CCCCOc1ccc(/C=N/NC(=O)c2nnn(-c3nonc3N)c2CN2CCCCCC2)cc1,"inconclusive [inhibitor, single point]",–
COC(=O)[C@@H]1CCCN1C(=O)c1c(OC)cc(=O)n2c1CCN(Cc1ccc3cccnc3c1)CC2,–,inactive: -3.54%
O=C(NCc1cccnc1)C1CCN(c2ccc(S(=O)(=O)N3CCOCC3)cc2Cl)CC1,"inconclusive [inhibitor, single point]",–
CCOC(=O)c1cccc(NC(=O)CCc2nc(-c3ccccc3F)no2)c1,"inconclusive [inhibitor, single point]",–
CCOc1ccc(NC(=O)CN(C)C(=O)Cc2c(C)nc3ccccc3c2C)cc1OCC,"inconclusive [inhibitor, single point]",–
Cn1cc(C[C@H](NC(=O)OC(C)(C)C)C(=O)N[C@@H](CO)Cc2ccccc2)c2ccccc21,"inconclusive [inhibitor, single point]",–
C=C(C)Cn1c(N2CCC(Cc3ccccc3)CC2)nc2c1c(=O)[nH]c(=O)n2C,"inconclusive [inhibitor, partial curve, poor fit]",–
CC(C)COc1ccc(Br)cc1CNC(C)(C)C,"inconclusive [inhibitor, partial curve]",–
Cc1cc(C(=O)OCC(=O)Nc2sc3c(c2C#N)CCC(C)C3)c2ccccc2n1 (stereo unspecified),–,inactive: 2.27%
C=CCN(CC=C)S(=O)(=O)c1ccc(C(=O)Nc2sc3c(c2C(N)=O)CCCCC3)cc1,active: 13 µM,–
Cc1ccccc1C(=O)N/N=C/c1ccccn1,"inconclusive [inhibitor, single point]",–

SMILES,Potency,"activity change, negative = growth inhibition"
CCN1CCN(CC(=O)Nc2cc(C(F)(F)F)ccc2OCCOC)CC1,–,inactive: -27.7%
O=S(=O)(Nc1nc2ccccc2nc1Cl)c1cccc(C(F)(F)F)c1,"inconclusive [inhibitor, single point]",–
COc1ccc(NC(=O)CN(C)CC(=O)N(C)C2(C#N)CCC(C)CC2)cc1 (stereo unspecified),–,inactive: -7.38%
O=S(=O)(c1cccc2cccc(Cl)c12)N1CCCC1,–,inactive: 8.32%
COc1cc(C2C=C(C34CC5CC(CC(C5)C3)C4)NC(=S)N2)cc(OC)c1OC (stereo unspecified),active: 5.8 µM,–
Cc1noc(C)c1NC(=O)N(C)C[C@@H]1Oc2ccc(NC(=O)CCC(F)(F)F)cc2CC(=O)N([C@@H](C)CO)C[C@@H]1C,–,inactive: -11.4%
O=C(Nc1ccc(-c2csc(Nc3cccc(C(F)(F)F)c3)n2)cc1)c1cccc(C(F)(F)F)c1,active: 6.51 µM,–
O=C(Nc1cccnc1N1CCOCC1)c1cc2ccccc2oc1=O,"inconclusive [inhibitor, single point]",–
Cc1c(NS(=O)(=O)c2cccc(C(=O)N3CCC(C(N)=O)CC3)c2)c(=O)n(-c2ccccc2)n1C,–,inactive: -5.17%
COc1ccc(NC(=O)CSc2nc3c(oc4ccccc43)c(=O)n2-c2ccccc2)cc1OC,"inconclusive [inhibitor, single point]",–
CC(Oc1ccccc1)C(=O)N1CCN=C1SCc1ccccc1F (stereo unspecified),"inconclusive [inhibitor, single point]",–
Cc1cc(C(=O)Nc2cccc(-c3ccc(N4CCOCC4)nn3)c2)ccc1[N+](=O)[O-],active: 25.9 µM,–
COc1cccc(CN(C)C(=O)C2CSC3(C)CCC(=O)N23)c1OC (stereo unspecified),–,inactive: -10.1%
CCNC(=S)NNC(=O)c1cc(-c2cccc(OC)c2)nc2ccccc12,active: 16.4 µM,–
C[C@@]12C(=O)Nc3ccc(Br)cc3C(=O)N1[C@H]1c3ccccc3OC[C@@H]1[C@@H]2c1ccccc1,"inconclusive [inhibitor, single point]",–
Nc1cc(SCc2ccc([N+](=O)[O-])cc2)ncn1,"inconclusive [inhibitor, single point]",–
O=C(O)CC1SC(=O)N(CC(=O)c2ccccc2)C1=O (stereo unspecified),–,inactive: 0.0353%
O=C(Nc1cccc(F)c1)c1ccccc1,–,inactive: -0.456%
CCOCCCN1C(=O)CN(C2CCC(C)CC2)C(=O)C1c1ccc(C)cc1 (stereo unspecified),active: 2.31 µM,–
Cc1nnsc1C(=O)Nc1ccc(S(=O)(=O)N2CCCC(C)C2)cc1 (stereo unspecified),"inconclusive [inhibitor, partial curve]",–
COc1ccc(CN(C)C(=O)[C@H]2O[C@@H](n3cnc4c(N)ncnc43)[C@H](O)[C@@H]2O)cc1OC,–,inactive: 6.87%
COc1cc2c(cc1OC)C(C)N(C(=O)Cc1ccc(C(F)(F)F)cc1)CC2 (stereo unspecified),"inconclusive [inhibitor, single point]",–
Fc1ccccc1COc1ccc(/C=N/NC(=S)NCc2ccccc2)cc1,active: 13 µM,–
O=[N+]([O-])c1ccc(NN=C(c2ccccc2)c2ccccc2)nc1,"inconclusive [inhibitor, single point]",–

SMILES,Potency,"activity change, negative = growth inhibition"
COc1ccc(C(=O)N2CCN(c3ccc([N+](=O)[O-])c(NCCc4ccc(OC)c(OC)c4)c3)CC2)cc1,active: 2.59 µM,–
Brc1cccc(-c2nnc(SCc3ccon3)n2-c2ccccc2)c1,active: 14.6 µM,–
CCN1C(=O)[C@H]2[C@@H](c3ccc(C)cc3)N3C(=O)N(c4ccccc4)C(=O)[C@@]3(Cc3ccccc3)[C@H]2C1=O,–,inactive: -0.71%
Cc1cc(O)c(C(=O)/C=C/c2ccccc2)c(=O)o1,"inconclusive [inhibitor, single point]",–
CCOC(=O)c1c(C)[nH]c(C(=O)COC(=O)/C=C/c2ccc(O)c(OC)c2)c1C,"inconclusive [inhibitor, single point]",–
O=C1Nc2ccccc2-n2nnnc2C1N1CCN(c2cccc(C(F)(F)F)n2)CC1 (stereo unspecified),"inconclusive [inhibitor, single point]",–
C(=Nc1ccc2ccccc2n1)c1ccccn1,"inconclusive [inhibitor, single point]",–
Cc1ccc(NC(=O)c2cc(S(=O)(=O)N3CCCCCC3)ccc2F)cc1F,"inconclusive [inhibitor, partial curve]",–
O=C(/C=C/c1ccccc1Cl)Nc1cccc(O)c1,"inconclusive [inhibitor, single point]",–
CC1(C(=O)NS(=O)(=O)c2cccc(F)c2)CCN1C(=O)Cc1cccs1 (stereo unspecified),–,inactive: -5.32%
CN(C)c1cc[n+](CC(=O)Nc2ccc([N+](=O)[O-])cc2Cl)cc1,"inconclusive [inhibitor, single point]",–
CCN1CCc2c(sc(-n3cccc3)c2C(C)NC(=O)Nc2cc(Cl)c(OC)cc2OC)C1 (stereo unspecified),active: 18.4 µM,–
CC[n+]1c(/C=C(\C)OC)sc2ccccc21,–,inactive: -15.7%
CCOC(=O)Cn1c(S(=O)(=O)Cc2ccc(Cl)cc2)nc(-c2ccccc2)c1-c1ccccc1,active: 16.4 µM,–
CC(=O)NC(=S)Nc1ccc(S(=O)(=O)N2CCOCC2)cc1,–,inactive: -16.9%
Cc1ccccc1-c1nc(N2CCNCC2)c2ccccc2n1,–,inactive: -1.41%
CC(NC(=O)CN1C(=O)NC2(CCCC2)C1=O)c1ccc(Cl)cc1Cl (stereo unspecified),"inconclusive [inhibitor, partial curve, poor fit]",–
c1ccc(C2Nc3ccccc3-c3nc4ccccc4n32)cc1 (stereo unspecified),"inconclusive [inhibitor, partial curve]",–
CCCC(=O)Nc1ccc(Cl)c(NC(=O)c2ccc(Br)o2)c1,"inconclusive [inhibitor, single point]",–
C[C@@H]1CN([C@@H](C)CO)C(=O)c2cccc(NS(C)(=O)=O)c2O[C@H]1CN(C)C(=O)Nc1ccc(F)cc1,–,inactive: -15.1%
CCNC(=O)C1(C)CCN(Cc2ccccc2-c2ccccc2)C1 (stereo unspecified),"inconclusive [inhibitor, partial curve]",–
CC1CCc2nc3ccccc3c(C(=O)OCC(=O)N3CCc4ccccc43)c2C1 (stereo unspecified),active: 5.8 µM,–
Cn1cc(C(c2ccccn2)c2cn(C)c3ccccc23)c2ccccc21,"inconclusive [inhibitor, single point]",–
